Consider 153 variants from a collection of fitness landscapes (doi:10.1126/science.1257360).

B1: PhoQ; a variant is named by its letters at X, in order, P23837 (parent)
chain: MKKLLRLFFPLSLRVRFLLATAAVVLVLSLAYGMVALIGYSVSFDKTTFRLLRGESNLFYTLAKWENNKLHVELPENIDKQSPTMTLIYDENGQLLWAQRDVPWLMKMIQPDWLKSNGFHEIEADVNDTSLLLSGDHSIQQQLQEVREDDDDAEMTHSVAVNVYPATSRMPKLTIVVVDTIPVELKSSYMVWSWFIYVLSANLLLVIPLLWVAAWWSLRPIEALAKEVRELEEHNRELLNPATTRELTSLVRNLNRLLKSERERYDKYRTTLTDLTHSLKTPLXXLQXXLRSLRSEKMSVSDAEPVMLEQISRISQQIGYYLHRASMRGGTLLSRELHPVAPLLDNLTSALNKVYQRKGVNISLDISPEISFVGEQNDFVEVMGNVLDNACKYCLEFVEISARQTDEHLYIVVEDDGPGIPLSKREVIFDRGQRVDTLRPGQGVGLAVAREITEQYEGKIVAGESMLGGARMEVIFGRQHSAPKDE

This is one part of the list.

This assay covers variants of B1. Kind of assay: enrichment ratio after two sorts for PhoP signalling (ratio (wild type AVST 3.29)); higher = more functional. As to conditions: with PhoP (E. coli).
Regarding TRHF, the enrichment ratio is no more than 0.25.

For the variant KNSF, the enrichment ratio was no more than 0.25.

As to RMCP, the enrichment ratio is no more than 0.25.

Take KRVV: the enrichment ratio was no more than 0.25.

With PCST, the enrichment ratio was no more than 0.25.

As to HHLW, the enrichment ratio is no more than 0.25.

For the variant RDLA, the enrichment ratio is 1.12.

VAGL: the enrichment ratio is 1.62.

For GACV, the enrichment ratio was no more than 0.25.

As for DPQQ, the enrichment ratio is no more than 0.25.

On to RIQP, for which the enrichment ratio was no more than 0.25.

Consider SIEH, for which the enrichment ratio was no more than 0.25.

Turning to HFNG, the enrichment ratio is no more than 0.25.

Turning to DHAA, the enrichment ratio was no more than 0.25.

With NEEA, the enrichment ratio was no more than 0.25.

In the case of GLLP, the enrichment ratio was no more than 0.25.

Take TQHF: the enrichment ratio was determined as 16.2.

Regarding WDFL, the enrichment ratio is no more than 0.25.

For the variant YFEY, the enrichment ratio was no more than 0.25.

Turning to ESGT, the enrichment ratio was no more than 0.25.

Take RWTV: the enrichment ratio was no more than 0.25.

HTKR: the enrichment ratio is no more than 0.25.

For the variant DHGR, the enrichment ratio was no more than 0.25.

For MCRE, the enrichment ratio was no more than 0.25.

As to ARWF, the enrichment ratio is no more than 0.25.

With MDPL, the enrichment ratio was no more than 0.25.

Take KRYG: the enrichment ratio was no more than 0.25.

Consider EENK, for which the enrichment ratio is no more than 0.25.

Consider FQQR, for which the enrichment ratio was no more than 0.25.

With KMIP, the enrichment ratio is no more than 0.25.

Consider WVNS, for which the enrichment ratio is no more than 0.25.

With SARP, the enrichment ratio is no more than 0.25.

As to FAGK, the enrichment ratio was no more than 0.25.

RFQK: the enrichment ratio is no more than 0.25.

As to LQTI, the enrichment ratio is no more than 0.25.

Take YMVI: the enrichment ratio was no more than 0.25.

For ACVT, the enrichment ratio amounted to 1.11.

As to VVRF, the enrichment ratio is no more than 0.25.

As to VMKC, the enrichment ratio was no more than 0.25.

As for VGMI, the enrichment ratio was determined as 20.4.

For DRNH, the enrichment ratio was no more than 0.25.

For the variant VMHN, the enrichment ratio is no more than 0.25.

With KMEF, the enrichment ratio was no more than 0.25.

In the case of DVNI, the enrichment ratio was no more than 0.25.

For FGMG, the enrichment ratio was 0.824.

For QKPA, the enrichment ratio is no more than 0.25.

Take KCRD: the enrichment ratio is no more than 0.25.

On to LQEA, for which the enrichment ratio was no more than 0.25.

Turning to LDRV, the enrichment ratio is no more than 0.25.

In the case of WKIC, the enrichment ratio is no more than 0.25.

Turning to GWNH, the enrichment ratio is no more than 0.25.

As to LFLM, the enrichment ratio was found to be 0.825.

As for MLSL, the enrichment ratio is 7.3.

For FTAP, the enrichment ratio was no more than 0.25.

As for PYKI, the enrichment ratio is no more than 0.25.

With HFAN, the enrichment ratio was no more than 0.25.

Take TLYH: the enrichment ratio is no more than 0.25.

In the case of MIIQ, the enrichment ratio is no more than 0.25.

Turning to INHI, the enrichment ratio is no more than 0.25.

Regarding NQKY, the enrichment ratio is no more than 0.25.

For the variant LPRW, the enrichment ratio was no more than 0.25.

With LTCN, the enrichment ratio was no more than 0.25.

Regarding YVLL, the enrichment ratio turned out to be 5.22.

Take DIWA: the enrichment ratio was no more than 0.25.

Take DCFL: the enrichment ratio was no more than 0.25.

As to LQKW, the enrichment ratio was no more than 0.25.

As for AYPN, the enrichment ratio was no more than 0.25.

As to RDLG, the enrichment ratio was no more than 0.25.

Take LEPC: the enrichment ratio is no more than 0.25.

For the variant LLPG, the enrichment ratio was no more than 0.25.

Turning to WLPI, the enrichment ratio is no more than 0.25.

Take NQES: the enrichment ratio is no more than 0.25.

Consider LMWY, for which the enrichment ratio was no more than 0.25.

In the case of IYMV, the enrichment ratio is no more than 0.25.

As to QHLC, the enrichment ratio was no more than 0.25.

With YDVI, the enrichment ratio was no more than 0.25.

Turning to SGQL, the enrichment ratio is 12.

Consider HKCL, for which the enrichment ratio stood at 3.32.

In the case of LSKI, the enrichment ratio was no more than 0.25.

For SKVM, the enrichment ratio worked out at 19.7.

In the case of FVMY, the enrichment ratio was no more than 0.25.

Regarding FPRE, the enrichment ratio was no more than 0.25.

On to LQAF, for which the enrichment ratio was no more than 0.25.

On to YYWC, for which the enrichment ratio is no more than 0.25.

IITN: the enrichment ratio is no more than 0.25.

On to IMRK, for which the enrichment ratio was no more than 0.25.

On to AISE, for which the enrichment ratio amounted to 2.44.

As to DLMF, the enrichment ratio is no more than 0.25.

For the variant VAMV, the enrichment ratio came to 3.25.

On to HSTW, for which the enrichment ratio is no more than 0.25.

In the case of GAHF, the enrichment ratio was no more than 0.25.

With TLIK, the enrichment ratio was no more than 0.25.

Regarding GNSN, the enrichment ratio is no more than 0.25.

In the case of PHQM, the enrichment ratio was no more than 0.25.

With ISSP, the enrichment ratio was no more than 0.25.

For PFYK, the enrichment ratio is no more than 0.25.

Take WGYC: the enrichment ratio was no more than 0.25.

Consider RITF, for which the enrichment ratio is no more than 0.25.

With WFFG, the enrichment ratio was no more than 0.25.

As to PACH, the enrichment ratio was no more than 0.25.

In the case of SRCR, the enrichment ratio was no more than 0.25.

In the case of QQYV, the enrichment ratio was no more than 0.25.

As for AMCF, the enrichment ratio was determined as 12.3.

With FGWD, the enrichment ratio is no more than 0.25.

In the case of QQEP, the enrichment ratio is no more than 0.25.

For IYTF, the enrichment ratio is no more than 0.25.

On to DQEC, for which the enrichment ratio was no more than 0.25.

DGRQ: the enrichment ratio is no more than 0.25.

Regarding ERCY, the enrichment ratio is no more than 0.25.

THRV: the enrichment ratio is no more than 0.25.

For DELF, the enrichment ratio is no more than 0.25.

For WDAH, the enrichment ratio is no more than 0.25.

Regarding QEAW, the enrichment ratio was no more than 0.25.

For VHYH, the enrichment ratio was no more than 0.25.

As to HSLN, the enrichment ratio is no more than 0.25.

LAFA: the enrichment ratio is no more than 0.25.

As to STLY, the enrichment ratio is 13.1.

For TINC, the enrichment ratio was found to be 5.07.

Regarding ISAR, the enrichment ratio was no more than 0.25.

As for MADK, the enrichment ratio was no more than 0.25.

In the case of PDMG, the enrichment ratio was no more than 0.25.

For the variant DEAI, the enrichment ratio was no more than 0.25.

For the variant FNEN, the enrichment ratio was no more than 0.25.

GMGE: the enrichment ratio is no more than 0.25.

Turning to FPHT, the enrichment ratio is no more than 0.25.

Turning to NFCD, the enrichment ratio is no more than 0.25.

As for DTPQ, the enrichment ratio was no more than 0.25.

For the variant MNST, the enrichment ratio was no more than 0.25.

Take PCAG: the enrichment ratio was no more than 0.25.

Regarding YYWV, the enrichment ratio is no more than 0.25.

As for MEGD, the enrichment ratio was no more than 0.25.

In the case of AAYY, the enrichment ratio was no more than 0.25.

Take CMIL: the enrichment ratio is no more than 0.25.

Take FRNI: the enrichment ratio is no more than 0.25.

Turning to MPFC, the enrichment ratio is no more than 0.25.

In the case of MHEC, the enrichment ratio was no more than 0.25.

Turning to RPRI, the enrichment ratio is no more than 0.25.

As for YWRW, the enrichment ratio was no more than 0.25.

Regarding YYCA, the enrichment ratio is no more than 0.25.

As for IMIF, the enrichment ratio is no more than 0.25.

With YPNS, the enrichment ratio was no more than 0.25.

Consider APHQ, for which the enrichment ratio was no more than 0.25.

In the case of ELCN, the enrichment ratio is no more than 0.25.

Take DCHK: the enrichment ratio is no more than 0.25.

Regarding MLAP, the enrichment ratio was no more than 0.25.

MNTA: the enrichment ratio was no more than 0.25.

Consider NDWT, for which the enrichment ratio was no more than 0.25.

On to QPPY, for which the enrichment ratio is no more than 0.25.

As to LFTS, the enrichment ratio was no more than 0.25.

As for HWCL, the enrichment ratio was no more than 0.25.

Consider SWFD, for which the enrichment ratio was no more than 0.25.

On to IDPR, for which the enrichment ratio was no more than 0.25.

AVNP: the enrichment ratio was no more than 0.25.
